# Results: PubChem BioAssay (Tox21)
# Where “and” joins values, the source holds several entries; their conditions need not be identical. Equal values may be shown once. The inconclusive results got no clear call from the source; some entries with a clear call stand among them for comparison. Potencies of inconclusive entries are doubtful fits and often do not repeat. Some structures have more than one record in an assay (separate samples or runs), and their calls can disagree. Calls of active or inactive are those of the source. Calls follow the shape of the dose curve; as a rule, active = well fitted curve in the direction sought with a large enough effect in the repeat runs; inconclusive = weak or mixed curves; inactive = no such curve, though single readings can be large; an effect the other way counts as inactive or inconclusive.
# Legend:
# [1] = qHTS RealTime-Glo MT Cell Viability Assay in HepG2 cells - 24 hour (AID 1224867); conditions: RealTime-Glo luminescence; series mostly up to 76.8 µM; also: nearly all actives have a fitted effect of over 50% in size
# Method in brief: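 HepG2 cells were seeded at 600 cells/well together with NanoLuc luciferase and a cell-permeant prosubstrate, preincubated 5 h at 37 C/5% CO2, then pin-dosed with compounds in DMSO. Nonlytic luminescence from viable cells was read at each time point.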
# [2] = qHTS RealTime-Glo MT Cell Viability Assay in HEK293 cells - 32 hour (AID 1224868); conditions: RealTime-Glo luminescence; series mostly up to 76.8 µM; also: nearly all actives have a fitted effect of over 50% in size
# Method in brief: (§1)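 HEK293 cells were seeded at 600 cells/well together with NanoLuc luciferase and cell-permeant prosubstrate, preincubated 5 h at 37 C/5% CO2, then given compound in DMSO by pintool. Luminescence from viable-cell prosubstrate reduction was read repeatedly over 40 h.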
# [3] = A CellTox Green Cytotoxicity Assay to monitor cytotoxicity in HEK293 cells - 40 hour (AID 1224871); conditions: CellTox Green fluorescence; series mostly up to 76.8 µM; also: nearly all actives have a fitted effect of over 45% in size
# Method in brief: (§2)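 Real-time, in one plate: 600 HEK293 cells/well with dead-cell DNA dye, pinned compound after 5 h, 37 C incubation over 40 h; viable cells give no appreciable fluorescence.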
# [4] = qHTS RealTime-Glo MT Cell Viability Assay in HepG2 cells - 8 hour (AID 1224873); conditions: RealTime-Glo luminescence; series mostly up to 76.8 µM; also: nearly all actives have a fitted effect of over 55% in size
# Method in brief: (§3)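 HepG2 cells mixed with RealTime-Glo MT reagents (NanoLuc plus cell-permeant prosubstrate) were seeded at 600 cells/well, incubated 5 h at 37 C/5% CO2, then pinned with compounds in DMSO; nonlytic luminescence tracked viability during 40 h treatment.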
# [5] = A CellTox Green Cytotoxicity Assay to monitor cytotoxicity in HEK293 cells - 24 hour (AID 1224875); conditions: CellTox Green fluorescence; series mostly up to 76.8 µM; also: nearly all actives have a fitted effect of over 45% in size
# Method in brief: as §2
# [6] = qHTS RealTime-Glo MT Cell Viability Assay in HEK293 cells - 16 hour (AID 1224872); conditions: RealTime-Glo luminescence; series mostly up to 76.8 µM; also: nearly all actives have a fitted effect of over 50% in size
# Method in brief: as §1
# [7] = qHTS assay to identify small molecule antagonists of the estrogen related receptor (ERR) signaling pathway from Tox21 library (AID 1224848); conditions: ERR reporter cell line, luciferase antagonist mode, 18 h; series mostly up to 92.4 µM; also: nearly all actives have a fitted effect of over 50% in size
# Method in brief: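 First, 2,000 ERR cells per well were plated and held 6 h at 37 C/5% CO2. Next, compounds in DMSO were pinned in and left 18 h at 37 C. Finally, ONE-Glo was added and luminescence read after 30 min at room temperature.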
# [8] = qHTS RealTime-Glo MT Cell Viability Assay in HepG2 cells - 40 hour (AID 1224870); conditions: RealTime-Glo luminescence; series mostly up to 76.8 µM; also: nearly all actives have a fitted effect of over 50% in size
# Method in brief: as §3
# [9] = qHTS RealTime-Glo MT Cell Viability Assay in HEK293 cells - 40 hour (AID 1224874); conditions: RealTime-Glo luminescence; max response: stronger effect = lower value; also: nearly all actives have a fitted effect of over 50% in size
# Method in brief: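 Kinetic, non-lysing viability readout. Seed HEK293 (600/well) with reagent, incubate 5 h at 37 C/5% CO2, pin 23 nL compound in DMSO, incubate at 37 C, read luminescence at 0, 8, 16, 24, 32, 40 h.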
# [10] = A CellTox Green Cytotoxicity Assay to monitor cytotoxicity in HEK293 cells - 0 hour (AID 1224869); conditions: CellTox Green fluorescence; series mostly up to 76.8 µM; also: nearly all actives have a fitted effect of over 50% in size
# Method in brief: as §2
# Potency is read from the fitted curve at half-maximal effect; tags tell the direction and shape of the fitted curve.
smiles,measurement,setting,value
NC(=O)CI,Potency,[1],active: 13.9 µM
same,Potency,[2],"inconclusive: 22.1 µM [rising, partial curve, poor fit]"
same,Potency,[3],"inconclusive: 55.4 µM [activator, single point]"
same,Potency,[4],"inconclusive: 49.4 µM [falling, partial curve, poor fit]"
same,Potency,[5],"inconclusive: 62.2 µM [activator, single point]"
[Hg+2].[I-].[I-],Potency,[1],active: 9.77 µM
same,Potency,[2],active: 3.09 µM
same,Potency,[6],active: 3.47 µM
same,Potency,[4],active: 12.3 µM
same,Potency,[5],active: 24.5 µM
CCCC[N+]1(C)[C@@H]2CC(OC(=O)[C@H](CO)c3ccccc3)C[C@H]1[C@@H]1O[C@@H]12 (stereo not given in full),Potency,[1],inactive
CCN(CC)N=O,Potency,[7],inactive
same,Potency,[5],inactive
CC[n+]1ccccc1,Potency,[1],"inconclusive: 55.1 µM [falling, single point]"
same,Potency,[2],active: 38.6 µM
same,Potency,[8],active: 34.8 µM
same,Potency,[3],"inconclusive: 21.7 µM [activator, partial curve]"
same,Potency,[6],"inactive and inconclusive: 48.6 µM [cytotoxic, single point]"
O=C1NCN(c2ccccc2)C12CCN(CCCOc1ccc(F)cc1)CC2,Potency,[1],"inconclusive: 26.8 µM [falling, partial curve, poor fit]"
same,Potency,[2],"inconclusive: 21.3 µM [cytotoxic, partial curve]"
same,Potency,[3],"inconclusive: 30.1 µM [activator, single point]"
same,Potency,[6],"inconclusive: 21.3 µM [cytotoxic, partial curve]"
same,Potency,[4],inactive
ClP(Cl)(Cl)(Cl)Cl,Potency,[1],"inconclusive: 55.3 µM [falling, single point]"
same,Potency,[2],"inconclusive: 55.3 µM [cytotoxic, single point]"
same,Potency,[8],"inconclusive: 62.1 µM [falling, single point]"
same,Potency,[3],"inconclusive: 55.3 µM [activator, single point]"
same,Potency,[6],"inconclusive: 55.3 µM [cytotoxic, single point]"
same,Potency,[4],"inconclusive: 39.2 µM [falling, partial curve, poor fit]"
same,Potency,[9],"inconclusive: 55.3 µM [cytotoxic, single point]"
CCCCn1cc[n+](C)c1,Potency,[1],"inconclusive: 55.7 µM [falling, single point]"
c1ccc2c(c1)OCC(C1=NCCN1)O2 (stereo not given),Potency,[1],"inconclusive: 19 µM [falling, partial curve, poor fit]"
same,Potency,[2],"inconclusive: 19 µM [cytotoxic, partial curve]"
same,Potency,[8],"inconclusive: 23.9 µM [falling, partial curve, poor fit]"
same,Potency,[3],active: 23.9 µM
same,Potency,[6],"inconclusive: 21.3 µM [cytotoxic, partial curve]"
CCCC[N+]1(C)CCCC1,Potency,[1],"inconclusive: 55.3 µM [falling, single point]"
CCC(=O)C(CC(C)N(C)C)(c1ccccc1)c1ccccc1 (stereo not given),Potency,[1],"inconclusive: 43.8 µM [falling, partial curve, poor fit]"
same,Potency,[2],"inconclusive: 27.7 µM [cytotoxic, partial curve] and active: 24.4 µM and inconclusive: 29.7 µM [cytotoxic, partial curve]"
same,Potency,[3],"inconclusive: 19.6 µM [activator, partial curve, poor fit]"
same,Potency,[6],"inconclusive: 24.4 µM [cytotoxic, partial curve]"
same,Potency,[9],"inconclusive: 22 µM [cytotoxic, full curve] and inconclusive: 33.3 µM [cytotoxic, partial curve]"
O=S(=O)(C(Cl)(Cl)Cl)C(Cl)(Cl)Cl,Potency,[1],active: 38.9 µM
same,Potency,[2],active: 9.77 µM
same,Potency,[8],active: 34.7 µM
same,Potency,[6],active: 12.3 µM
same,Potency,[4],active: 38.9 µM
same,Potency,[9],active: 8.71 µM
same,Potency,[5],active: 21.9 µM
Cc1cc(C)cc(OP(=O)(Oc2cc(C)cc(C)c2)Oc2cc(C)cc(C)c2)c1,Potency,[1],inactive
O=c1oc2ccccc2c(O)c1Cc1c(O)c2ccccc2oc1=O,Potency,[7],"inconclusive: 13.3 µM [inhibitor, single point]"
same,Potency,[6],inactive
same,Potency,[4],"inconclusive: 21.3 µM [falling, partial curve]"
C=CCOC(Cn1ccnc1)c1ccc(Cl)cc1Cl (stereo not given),Potency,[1],"inconclusive: 49.1 µM [falling, partial curve, poor fit]"
same,Potency,[2],"inconclusive: 21.3 µM [cytotoxic, partial curve]"
same,Potency,[10],"inconclusive: 43.8 µM [activator, partial curve, poor fit]"
same,Potency,[3],"inconclusive: 61.6 µM [activator, partial curve, poor fit]"
same,Potency,[6],"active: 43.8 µM and inconclusive: 24.5 µM [cytotoxic, partial curve] and inconclusive: 21.3 µM [cytotoxic, partial curve]"
CCC[N+]1(C)CCCCC1,Potency,[1],"inconclusive: 43.8 µM [falling, single point]"
same,Potency,[2],"inconclusive: 54.9 µM [cytotoxic, single point]"
same,Potency,[6],"inconclusive: 54.9 µM [cytotoxic, single point]"
COc1cccc2c1C(=O)c1c(O)c3c(c(O)c1C2=O)C[C@@](O)(C(=O)CO)CC3OC1CC(N2CCOC(OC)C2)C(O)C(C)O1 (stereo not given in full),Potency,[1],active: 1.9 µM
same,Potency,[2],active: 0.0301 µM
same,Potency,[6],"inconclusive: 0.134 µM [cytotoxic, full curve]"
same,Potency,[4],"inconclusive: 19 µM [falling, partial curve]"
O.O.O.O=C([O-])[C@H]([O-])[C@@H]([O-])C(=O)[O-].O=C([O-])[C@H]([O-])[C@@H]([O-])C(=O)[O-].[K+].[K+].[Sb+3].[Sb+3],Potency,[1],"inconclusive: 55.2 µM [falling, single point]"
same,Potency,[2],"inconclusive: 4.92 µM [rising, full curve]"
same,Potency,[3],"inconclusive: 34.8 µM [activator, partial curve, poor fit]"
same,Potency,[6],"inconclusive: 6.95 µM [rising, partial curve]"
same,Potency,[4],"inconclusive: 39.1 µM [falling, partial curve, poor fit]"
same,Potency,[9],"inconclusive: 4.92 µM [rising, full curve]"
CC(=O)C=C(C)C,Potency,[7],inactive
same,Potency,[5],inactive
C/C(=C\c1ccccc1)[N+](=O)[O-],Potency,[1],"inconclusive: 12.3 µM [falling, single point]"
same,Potency,[2],"inconclusive: 4.9 µM [rising, partial curve]"
same,Potency,[6],"inconclusive: 3.89 µM [rising, partial curve]"
C=CCc1ccc2c(c1)OCO2,Potency,[1],inactive
same,Potency,[3],"inconclusive: 55.2 µM [activator, partial curve, poor fit]"
same,Potency,[5],"inconclusive: 55.2 µM [activator, single point]"
Cc1ccc(N=CN(C)C=Nc2ccc(C)cc2C)c(C)c1,Potency,[1],"inconclusive: 43.6 µM [falling, partial curve]"
same,Potency,[8],"inconclusive: 48.9 µM [falling, single point]"
same,Potency,[3],"inconclusive: 55.2 µM [activator, single point] and inconclusive: 54.9 µM [activator, single point]"
same,Potency,[9],active: 43.8 µM and active: 43.6 µM
same,Potency,[5],"inconclusive: 55.2 µM [activator, single point] and inconclusive: 48.9 µM [activator, single point]"
O=[N+]([O-])c1ccc(CCl)cc1,Potency,[1],inactive
same,Potency,[2],"inconclusive: 60.6 µM [cytotoxic, single point]"
same,Potency,[9],"inconclusive: 60.6 µM [cytotoxic, single point]"
Clc1ccc(CCC(Cn2ccnc2)Sc2c(Cl)cccc2Cl)cc1 (stereo not given),Potency,[1],"inconclusive: 23.9 µM [falling, partial curve]"
same,Potency,[6],"inconclusive: 19 µM [cytotoxic, partial curve]"
same,Potency,[4],"inconclusive: 26.8 µM [falling, partial curve, poor fit]"
